These are yes or no findings as the source states them, for the method shown. In cells and extracts the contact can be indirect. Some entries that bind do so weakly or less than the wild type. For some of these results: Where a sequence is shown, tags or fusion partners need not be part of it.
T1: Endomucin (human (endogenous in HRECs)) (UniProt Q9ULC0)
T1 sequence: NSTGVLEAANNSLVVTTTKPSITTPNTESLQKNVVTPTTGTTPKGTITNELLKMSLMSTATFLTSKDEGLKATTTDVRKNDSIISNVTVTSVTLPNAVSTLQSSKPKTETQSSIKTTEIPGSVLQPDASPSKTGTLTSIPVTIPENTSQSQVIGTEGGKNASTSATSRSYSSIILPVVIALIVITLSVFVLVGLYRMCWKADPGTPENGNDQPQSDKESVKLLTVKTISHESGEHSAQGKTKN

Sequences of proteins named here, by UniProt entry; tags and fusion partners are left off. Residues count along the entry.
UniProt O94973: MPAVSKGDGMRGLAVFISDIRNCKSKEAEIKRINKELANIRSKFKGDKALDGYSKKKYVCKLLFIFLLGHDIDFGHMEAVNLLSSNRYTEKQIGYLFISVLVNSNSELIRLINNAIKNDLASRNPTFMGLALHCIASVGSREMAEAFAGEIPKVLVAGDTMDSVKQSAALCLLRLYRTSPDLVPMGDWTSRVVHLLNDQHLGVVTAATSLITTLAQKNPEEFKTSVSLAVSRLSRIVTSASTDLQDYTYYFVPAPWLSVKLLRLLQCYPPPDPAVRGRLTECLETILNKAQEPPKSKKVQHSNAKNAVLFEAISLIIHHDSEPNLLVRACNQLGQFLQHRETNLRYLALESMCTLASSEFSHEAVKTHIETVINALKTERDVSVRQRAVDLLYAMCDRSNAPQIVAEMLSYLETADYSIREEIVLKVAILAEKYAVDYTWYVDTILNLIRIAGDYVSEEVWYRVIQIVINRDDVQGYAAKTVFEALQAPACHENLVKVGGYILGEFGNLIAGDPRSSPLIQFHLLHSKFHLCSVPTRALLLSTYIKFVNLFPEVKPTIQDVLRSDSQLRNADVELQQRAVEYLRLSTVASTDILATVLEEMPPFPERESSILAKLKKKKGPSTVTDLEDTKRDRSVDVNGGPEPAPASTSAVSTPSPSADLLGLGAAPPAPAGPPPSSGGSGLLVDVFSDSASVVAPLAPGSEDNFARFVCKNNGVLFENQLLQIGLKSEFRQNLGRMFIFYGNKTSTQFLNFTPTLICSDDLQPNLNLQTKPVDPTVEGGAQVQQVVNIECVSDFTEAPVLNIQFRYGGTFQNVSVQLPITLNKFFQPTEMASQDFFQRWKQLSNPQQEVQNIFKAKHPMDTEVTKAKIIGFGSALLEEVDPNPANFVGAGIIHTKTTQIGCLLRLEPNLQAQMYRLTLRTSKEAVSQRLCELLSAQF
UniProt P63010: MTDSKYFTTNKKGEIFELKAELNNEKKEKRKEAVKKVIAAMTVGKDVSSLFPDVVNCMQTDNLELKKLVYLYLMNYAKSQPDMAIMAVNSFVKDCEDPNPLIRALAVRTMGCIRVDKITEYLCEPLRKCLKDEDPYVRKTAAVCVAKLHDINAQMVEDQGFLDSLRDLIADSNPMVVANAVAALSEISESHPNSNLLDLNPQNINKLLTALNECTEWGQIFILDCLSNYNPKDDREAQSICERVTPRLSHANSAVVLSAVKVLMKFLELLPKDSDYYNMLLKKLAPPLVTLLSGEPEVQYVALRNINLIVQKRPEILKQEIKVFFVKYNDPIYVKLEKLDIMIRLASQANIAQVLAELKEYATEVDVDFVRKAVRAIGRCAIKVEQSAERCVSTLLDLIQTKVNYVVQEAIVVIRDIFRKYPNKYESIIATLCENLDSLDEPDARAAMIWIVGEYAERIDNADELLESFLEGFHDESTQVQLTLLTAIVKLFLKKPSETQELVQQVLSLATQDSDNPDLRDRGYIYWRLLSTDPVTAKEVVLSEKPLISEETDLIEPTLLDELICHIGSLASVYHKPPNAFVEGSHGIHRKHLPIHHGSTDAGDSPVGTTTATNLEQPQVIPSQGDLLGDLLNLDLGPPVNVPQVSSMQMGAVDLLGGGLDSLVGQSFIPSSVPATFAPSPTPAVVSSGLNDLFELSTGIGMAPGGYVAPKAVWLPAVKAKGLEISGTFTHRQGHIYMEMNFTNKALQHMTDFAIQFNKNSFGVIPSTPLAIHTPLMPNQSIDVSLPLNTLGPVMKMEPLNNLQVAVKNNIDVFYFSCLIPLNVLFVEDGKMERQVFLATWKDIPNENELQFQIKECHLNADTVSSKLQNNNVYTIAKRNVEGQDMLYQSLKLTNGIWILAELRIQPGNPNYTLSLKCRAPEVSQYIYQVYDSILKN
UniProt P11362, residues 22-822: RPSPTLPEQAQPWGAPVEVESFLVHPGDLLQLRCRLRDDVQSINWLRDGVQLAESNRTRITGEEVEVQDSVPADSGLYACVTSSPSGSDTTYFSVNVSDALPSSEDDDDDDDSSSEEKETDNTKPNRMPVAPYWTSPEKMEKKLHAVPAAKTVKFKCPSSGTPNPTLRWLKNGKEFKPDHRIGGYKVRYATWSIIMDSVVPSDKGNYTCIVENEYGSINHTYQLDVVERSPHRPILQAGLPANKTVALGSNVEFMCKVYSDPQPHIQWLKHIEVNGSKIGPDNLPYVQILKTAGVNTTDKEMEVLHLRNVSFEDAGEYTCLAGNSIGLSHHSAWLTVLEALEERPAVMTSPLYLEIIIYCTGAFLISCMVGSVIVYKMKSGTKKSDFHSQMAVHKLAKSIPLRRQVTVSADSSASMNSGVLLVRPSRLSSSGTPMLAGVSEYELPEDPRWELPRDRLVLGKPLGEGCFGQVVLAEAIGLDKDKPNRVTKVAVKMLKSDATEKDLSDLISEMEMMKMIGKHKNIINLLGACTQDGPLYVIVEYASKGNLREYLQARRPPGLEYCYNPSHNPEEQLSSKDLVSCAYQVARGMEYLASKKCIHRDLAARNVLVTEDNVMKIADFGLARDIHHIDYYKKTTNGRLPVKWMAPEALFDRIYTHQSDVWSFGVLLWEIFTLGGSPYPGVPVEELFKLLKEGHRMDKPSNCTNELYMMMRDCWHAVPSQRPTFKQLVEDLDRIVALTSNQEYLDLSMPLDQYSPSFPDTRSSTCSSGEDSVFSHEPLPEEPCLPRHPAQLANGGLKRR
UniProt P17948, residues 27-1338: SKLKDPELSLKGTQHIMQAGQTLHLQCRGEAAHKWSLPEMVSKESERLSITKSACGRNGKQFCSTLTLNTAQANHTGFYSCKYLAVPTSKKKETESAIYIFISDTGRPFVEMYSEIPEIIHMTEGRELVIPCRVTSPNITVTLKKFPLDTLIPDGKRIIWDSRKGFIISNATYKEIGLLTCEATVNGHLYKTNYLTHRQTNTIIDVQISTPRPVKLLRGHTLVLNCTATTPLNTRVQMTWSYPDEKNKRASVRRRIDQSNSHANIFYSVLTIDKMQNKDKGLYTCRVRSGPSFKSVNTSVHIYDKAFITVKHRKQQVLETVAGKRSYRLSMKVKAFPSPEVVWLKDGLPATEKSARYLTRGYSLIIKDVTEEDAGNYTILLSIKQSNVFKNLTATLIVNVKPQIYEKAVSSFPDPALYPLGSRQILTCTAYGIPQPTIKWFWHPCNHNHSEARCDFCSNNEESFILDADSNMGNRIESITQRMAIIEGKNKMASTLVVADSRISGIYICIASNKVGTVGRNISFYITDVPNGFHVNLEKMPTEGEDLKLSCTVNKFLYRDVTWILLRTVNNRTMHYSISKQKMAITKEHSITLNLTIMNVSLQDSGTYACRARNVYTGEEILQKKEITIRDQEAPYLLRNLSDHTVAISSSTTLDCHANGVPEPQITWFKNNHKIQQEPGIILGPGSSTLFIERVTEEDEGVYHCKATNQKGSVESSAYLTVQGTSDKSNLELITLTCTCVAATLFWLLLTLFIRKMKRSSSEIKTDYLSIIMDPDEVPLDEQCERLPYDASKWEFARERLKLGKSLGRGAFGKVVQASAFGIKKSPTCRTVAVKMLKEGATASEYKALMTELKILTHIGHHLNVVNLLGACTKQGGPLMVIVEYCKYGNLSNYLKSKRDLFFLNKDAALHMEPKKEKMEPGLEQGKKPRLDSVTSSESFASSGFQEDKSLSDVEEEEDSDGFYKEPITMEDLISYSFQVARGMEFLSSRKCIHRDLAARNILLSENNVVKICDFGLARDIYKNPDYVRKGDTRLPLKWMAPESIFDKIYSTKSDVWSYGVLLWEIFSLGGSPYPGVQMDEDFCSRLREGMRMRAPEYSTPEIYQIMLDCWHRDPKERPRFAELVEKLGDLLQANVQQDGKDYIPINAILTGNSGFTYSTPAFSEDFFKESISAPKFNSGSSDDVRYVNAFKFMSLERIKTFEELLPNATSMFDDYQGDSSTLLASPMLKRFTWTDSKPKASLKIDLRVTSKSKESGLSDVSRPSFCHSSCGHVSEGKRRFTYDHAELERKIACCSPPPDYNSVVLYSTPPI
UniProt P35968, residues 20-1356: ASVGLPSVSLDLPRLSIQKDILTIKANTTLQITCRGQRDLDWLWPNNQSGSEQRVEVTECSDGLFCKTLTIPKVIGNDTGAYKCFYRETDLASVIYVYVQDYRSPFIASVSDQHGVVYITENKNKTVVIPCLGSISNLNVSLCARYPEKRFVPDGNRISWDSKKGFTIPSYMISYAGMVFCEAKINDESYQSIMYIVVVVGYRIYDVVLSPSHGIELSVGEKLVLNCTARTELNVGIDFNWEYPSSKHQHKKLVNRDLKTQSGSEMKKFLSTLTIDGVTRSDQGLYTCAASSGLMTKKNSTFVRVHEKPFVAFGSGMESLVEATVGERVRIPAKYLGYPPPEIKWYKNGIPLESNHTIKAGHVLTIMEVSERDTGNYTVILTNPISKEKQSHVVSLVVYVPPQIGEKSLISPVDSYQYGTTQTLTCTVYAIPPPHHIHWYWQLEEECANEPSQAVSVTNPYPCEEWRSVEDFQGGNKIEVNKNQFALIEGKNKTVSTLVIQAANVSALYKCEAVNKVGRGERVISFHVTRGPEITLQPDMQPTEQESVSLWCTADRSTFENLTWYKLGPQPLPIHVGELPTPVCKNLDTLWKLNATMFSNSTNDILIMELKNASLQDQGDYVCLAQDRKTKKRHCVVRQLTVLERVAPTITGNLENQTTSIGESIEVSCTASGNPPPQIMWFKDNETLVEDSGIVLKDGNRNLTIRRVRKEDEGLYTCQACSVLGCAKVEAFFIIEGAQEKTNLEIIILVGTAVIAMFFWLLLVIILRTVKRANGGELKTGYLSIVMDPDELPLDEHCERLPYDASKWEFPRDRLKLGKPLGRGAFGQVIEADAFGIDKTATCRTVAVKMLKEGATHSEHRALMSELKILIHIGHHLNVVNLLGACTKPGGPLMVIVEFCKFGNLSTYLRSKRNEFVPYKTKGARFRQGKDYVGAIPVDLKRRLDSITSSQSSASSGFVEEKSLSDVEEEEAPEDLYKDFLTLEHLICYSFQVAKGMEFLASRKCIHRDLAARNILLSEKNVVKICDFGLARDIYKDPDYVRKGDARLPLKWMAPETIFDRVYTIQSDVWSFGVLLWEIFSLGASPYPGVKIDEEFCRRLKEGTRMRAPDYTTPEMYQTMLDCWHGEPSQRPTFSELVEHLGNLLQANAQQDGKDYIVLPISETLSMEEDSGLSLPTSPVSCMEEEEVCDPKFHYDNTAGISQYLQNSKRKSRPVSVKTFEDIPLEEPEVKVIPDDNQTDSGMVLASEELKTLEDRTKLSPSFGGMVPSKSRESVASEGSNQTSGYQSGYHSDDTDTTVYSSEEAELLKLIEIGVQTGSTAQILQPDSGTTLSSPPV

T2: myc-tagged human EMCN (human) (UniProt Q9ULC0)
T2 sequence: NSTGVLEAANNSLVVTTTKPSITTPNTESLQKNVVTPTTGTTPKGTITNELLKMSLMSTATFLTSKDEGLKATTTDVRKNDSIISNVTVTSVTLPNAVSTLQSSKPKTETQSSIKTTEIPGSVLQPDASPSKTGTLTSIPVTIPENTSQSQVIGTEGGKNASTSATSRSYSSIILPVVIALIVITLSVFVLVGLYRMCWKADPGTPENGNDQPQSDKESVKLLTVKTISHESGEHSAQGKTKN


How the values were obtained:
[1] = molecular target: T1, Endomucin (human (endogenous in HRECs)); experiment: co-IP; immunoprecipitation and Western blot validating EMCN with AP2A2 (Fig. 1E); which protein was precipitated is not told
[2] = molecular target: T2, myc-tagged human EMCN (human); experiment: co-IP; HRECs overexpressing myc-tagged EMCN (AdEMCN-myc) lysed; mouse anti-Myc antibody or mouse IgG overnight at 4 °C, protein A/G beads, PBST and PBS washes; Western blot
[3] = molecular target: AP2A2 subunit of the AP2 adaptor complex (human (endogenous in HRECs)) (UniProt O94973); experiment: co-IP; HRECs treated with non-targeting siRNA (siNT) lysed; VEGFR2 co-immunoprecipitated with AP2A2; Western blot (Fig. 3G)

binding [1]	binding [2]	binding [3]	Molecule
binds	binds	–	AP2A2 subunit of the AP2 adaptor complex (from UniProt O94973 1-939)
–	binds	–	AP2β, β subunit of the AP2 adaptor complex (from UniProt P63010 1-937)
–	no binding	–	Fibroblast growth factor receptor 1 (from UniProt P11362 22-822)
–	no binding	–	Vascular endothelial growth factor receptor 1 (from UniProt P17948 27-1338)
–	binds	–	Vascular endothelial growth factor receptor 2 (from UniProt P35968 20-1356)
–	–	binds	Endomucin (protein, UniProt Q9ULC0 19-261) NSTGVLEAANNSLVVTTTKPSITTPNTESLQKNVVTPTTGTTPKGTITNELLKMSLMSTATFLTSKDEGLKATTTDVRKNDSIISNVTVTSVTLPNAVSTLQSSKPKTETQSSIKTTEIPGSVLQPDASPSKTGTLTSIPVTIPENTSQSQVIGTEGGKNASTSATSRSYSSIILPVVIALIVITLSVFVLVGLYRMCWKADPGTPENGNDQPQSDKESVKLLTVKTISHESGEHSAQGKTKN

From article PMC11007909
